{"source": "a collection of fitness landscapes (doi:10.1126/science.1257360)", "parents": {"B1": {"name": "PhoQ; a variant is named by its letters at X, in order, P23837 (parent)", "chain": "MKKLLRLFFPLSLRVRFLLATAAVVLVLSLAYGMVALIGYSVSFDKTTFRLLRGESNLFYTLAKWENNKLHVELPENIDKQSPTMTLIYDENGQLLWAQRDVPWLMKMIQPDWLKSNGFHEIEADVNDTSLLLSGDHSIQQQLQEVREDDDDAEMTHSVAVNVYPATSRMPKLTIVVVDTIPVELKSSYMVWSWFIYVLSANLLLVIPLLWVAAWWSLRPIEALAKEVRELEEHNRELLNPATTRELTSLVRNLNRLLKSERERYDKYRTTLTDLTHSLKTPLXXLQXXLRSLRSEKMSVSDAEPVMLEQISRISQQIGYYLHRASMRGGTLLSRELHPVAPLLDNLTSALNKVYQRKGVNISLDISPEISFVGEQNDFVEVMGNVLDNACKYCLEFVEISARQTDEHLYIVVEDDGPGIPLSKREVIFDRGQRVDTLRPGQGVGLAVAREITEQYEGKIVAGESMLGGARMEVIFGRQHSAPKDE"}}, "note": "The other results are listed elsewhere or left out.", "data": [{"variants_of": "B1", "experiment": "enrichment ratio after two sorts for PhoP signalling (ratio (wild type AVST 3.29)); higher = more functional", "details": "with PhoP (E. coli)", "values": [{"variant": "HHVH", "enrichment ratio": "≤ 0.25"}, {"variant": "VAFF", "enrichment ratio": 0.535}, {"variant": "FQIN", "enrichment ratio": "≤ 0.25"}, {"variant": "FWWS", "enrichment ratio": "≤ 0.25"}, {"variant": "VHAW", "enrichment ratio": "≤ 0.25"}, {"variant": "DFRC", "enrichment ratio": "≤ 0.25"}, {"variant": "ELAE", "enrichment ratio": "≤ 0.25"}, {"variant": "SNQL", "enrichment ratio": 8.37}, {"variant": "HRSM", "enrichment ratio": "≤ 0.25"}, {"variant": "FVLK", "enrichment ratio": 1.61}, {"variant": "FYAI", "enrichment ratio": "≤ 0.25"}, {"variant": "KSGT", "enrichment ratio": "≤ 0.25"}, {"variant": "FYED", "enrichment ratio": "≤ 0.25"}, {"variant": "VSLA", "enrichment ratio": 0.756}, {"variant": "QYKP", "enrichment ratio": "≤ 0.25"}, {"variant": "NNWV", "enrichment ratio": "≤ 0.25"}, {"variant": "MDNL", "enrichment ratio": "≤ 0.25"}, {"variant": "FRWL", "enrichment ratio": "≤ 0.25"}, {"variant": "YEDH", "enrichment ratio": "≤ 0.25"}, {"variant": "EMLM", "enrichment ratio": "≤ 0.25"}, {"variant": "PYCQ", "enrichment ratio": "≤ 0.25"}, {"variant": "NKVQ", "enrichment ratio": "≤ 0.25"}, {"variant": "SRVD", "enrichment ratio": "≤ 0.25"}, {"variant": "TGKA", "enrichment ratio": "≤ 0.25"}, {"variant": "PYTK", "enrichment ratio": "≤ 0.25"}, {"variant": "ECYY", "enrichment ratio": "≤ 0.25"}, {"variant": "SLKC", "enrichment ratio": "≤ 0.25"}, {"variant": "LLFA", "enrichment ratio": "≤ 0.25"}, {"variant": "GFCA", "enrichment ratio": "≤ 0.25"}, {"variant": "YYGS", "enrichment ratio": "≤ 0.25"}, {"variant": "DITG", "enrichment ratio": "≤ 0.25"}, {"variant": "GGPC", "enrichment ratio": "≤ 0.25"}, {"variant": "NWRE", "enrichment ratio": "≤ 0.25"}, {"variant": "RHDG", "enrichment ratio": "≤ 0.25"}, {"variant": "WWLI", "enrichment ratio": "≤ 0.25"}, {"variant": "WENC", "enrichment ratio": "≤ 0.25"}, {"variant": "FKKF", "enrichment ratio": "≤ 0.25"}, {"variant": "VRKF", "enrichment ratio": "≤ 0.25"}, {"variant": "SESV", "enrichment ratio": 16.9}, {"variant": "AFMA", "enrichment ratio": "≤ 0.25"}, {"variant": "FSIE", "enrichment ratio": "≤ 0.25"}, {"variant": "ANRQ", "enrichment ratio": "≤ 0.25"}, {"variant": "WYLE", "enrichment ratio": "≤ 0.25"}, {"variant": "AITF", "enrichment ratio": 15}, {"variant": "WLVI", "enrichment ratio": "≤ 0.25"}, {"variant": "YAHY", "enrichment ratio": "≤ 0.25"}, {"variant": "HMRT", "enrichment ratio": "≤ 0.25"}, {"variant": "KKTV", "enrichment ratio": 0.887}, {"variant": "RKER", "enrichment ratio": "≤ 0.25"}, {"variant": "QVPQ", "enrichment ratio": "≤ 0.25"}, {"variant": "VTWR", "enrichment ratio": "≤ 0.25"}, {"variant": "AHPM", "enrichment ratio": "≤ 0.25"}, {"variant": "TAYA", "enrichment ratio": 4.54}, {"variant": "AKTP", "enrichment ratio": "≤ 0.25"}, {"variant": "VGAG", "enrichment ratio": "≤ 0.25"}, {"variant": "SKNF", "enrichment ratio": "≤ 0.25"}, {"variant": "VGNW", "enrichment ratio": "≤ 0.25"}, {"variant": "SDFT", "enrichment ratio": "≤ 0.25"}, {"variant": "MYCW", "enrichment ratio": "≤ 0.25"}, {"variant": "NMCC", "enrichment ratio": "≤ 0.25"}, {"variant": "IIAR", "enrichment ratio": "≤ 0.25"}, {"variant": "DRLN", "enrichment ratio": "≤ 0.25"}, {"variant": "KMVT", "enrichment ratio": "≤ 0.25"}, {"variant": "TELN", "enrichment ratio": 21.6}, {"variant": "WDHT", "enrichment ratio": "≤ 0.25"}, {"variant": "PALH", "enrichment ratio": "≤ 0.25"}, {"variant": "APGL", "enrichment ratio": "≤ 0.25"}, {"variant": "SYHN", "enrichment ratio": "≤ 0.25"}, {"variant": "YWCG", "enrichment ratio": "≤ 0.25"}, {"variant": "NIYG", "enrichment ratio": "≤ 0.25"}, {"variant": "GHTM", "enrichment ratio": "≤ 0.25"}, {"variant": "TCNQ", "enrichment ratio": "≤ 0.25"}, {"variant": "DVYW", "enrichment ratio": "≤ 0.25"}, {"variant": "RNDG", "enrichment ratio": "≤ 0.25"}, {"variant": "GHRD", "enrichment ratio": "≤ 0.25"}, {"variant": "LDES", "enrichment ratio": "≤ 0.25"}, {"variant": "RRCH", "enrichment ratio": "≤ 0.25"}, {"variant": "NKIK", "enrichment ratio": "≤ 0.25"}, {"variant": "LKSM", "enrichment ratio": "≤ 0.25"}, {"variant": "PQCM", "enrichment ratio": "≤ 0.25"}, {"variant": "VRHP", "enrichment ratio": "≤ 0.25"}, {"variant": "DKHC", "enrichment ratio": "≤ 0.25"}, {"variant": "TKPI", "enrichment ratio": "≤ 0.25"}, {"variant": "VNLC", "enrichment ratio": 3.35}, {"variant": "HKEW", "enrichment ratio": "≤ 0.25"}, {"variant": "IWTH", "enrichment ratio": "≤ 0.25"}, {"variant": "KIDS", "enrichment ratio": "≤ 0.25"}, {"variant": "QRQA", "enrichment ratio": "≤ 0.25"}, {"variant": "ERTY", "enrichment ratio": "≤ 0.25"}, {"variant": "GFYE", "enrichment ratio": "≤ 0.25"}, {"variant": "YECD", "enrichment ratio": "≤ 0.25"}, {"variant": "HRYY", "enrichment ratio": "≤ 0.25"}, {"variant": "DQCN", "enrichment ratio": "≤ 0.25"}, {"variant": "DRMH", "enrichment ratio": "≤ 0.25"}, {"variant": "QGAR", "enrichment ratio": "≤ 0.25"}, {"variant": "SHGV", "enrichment ratio": "≤ 0.25"}, {"variant": "WNGP", "enrichment ratio": "≤ 0.25"}, {"variant": "QSKD", "enrichment ratio": "≤ 0.25"}, {"variant": "LHCY", "enrichment ratio": "≤ 0.25"}, {"variant": "TAGT", "enrichment ratio": 7.68}, {"variant": "RNKT", "enrichment ratio": "≤ 0.25"}, {"variant": "TQIN", "enrichment ratio": "≤ 0.25"}, {"variant": "RHIA", "enrichment ratio": "≤ 0.25"}, {"variant": "GMYM", "enrichment ratio": "≤ 0.25"}, {"variant": "PVDI", "enrichment ratio": "≤ 0.25"}, {"variant": "KVMR", "enrichment ratio": "≤ 0.25"}, {"variant": "PYSN", "enrichment ratio": "≤ 0.25"}, {"variant": "GVQL", "enrichment ratio": "≤ 0.25"}, {"variant": "PRDP", "enrichment ratio": "≤ 0.25"}, {"variant": "LFHE", "enrichment ratio": "≤ 0.25"}, {"variant": "FFRF", "enrichment ratio": "≤ 0.25"}, {"variant": "ACWI", "enrichment ratio": "≤ 0.25"}, {"variant": "SNSM", "enrichment ratio": 33.4}, {"variant": "YSVF", "enrichment ratio": "≤ 0.25"}, {"variant": "IHVN", "enrichment ratio": "≤ 0.25"}, {"variant": "EQYF", "enrichment ratio": "≤ 0.25"}, {"variant": "RVCN", "enrichment ratio": "≤ 0.25"}, {"variant": "VKHL", "enrichment ratio": "≤ 0.25"}, {"variant": "HAMM", "enrichment ratio": 7.86}, {"variant": "PLLL", "enrichment ratio": "≤ 0.25"}, {"variant": "WIKG", "enrichment ratio": "≤ 0.25"}, {"variant": "NDPE", "enrichment ratio": "≤ 0.25"}, {"variant": "MCYS", "enrichment ratio": 12.8}, {"variant": "IEAA", "enrichment ratio": "≤ 0.25"}, {"variant": "WGFH", "enrichment ratio": "≤ 0.25"}, {"variant": "MHRC", "enrichment ratio": "≤ 0.25"}, {"variant": "INTR", "enrichment ratio": "≤ 0.25"}, {"variant": "KMQH", "enrichment ratio": "≤ 0.25"}, {"variant": "RCWW", "enrichment ratio": "≤ 0.25"}, {"variant": "IKEQ", "enrichment ratio": "≤ 0.25"}, {"variant": "KVWC", "enrichment ratio": "≤ 0.25"}, {"variant": "LSGN", "enrichment ratio": "≤ 0.25"}, {"variant": "PPCH", "enrichment ratio": "≤ 0.25"}, {"variant": "PKGQ", "enrichment ratio": "≤ 0.25"}, {"variant": "VETQ", "enrichment ratio": "≤ 0.25"}, {"variant": "YRQP", "enrichment ratio": "≤ 0.25"}, {"variant": "FDSQ", "enrichment ratio": "≤ 0.25"}, {"variant": "NTDH", "enrichment ratio": "≤ 0.25"}, {"variant": "EFYA", "enrichment ratio": "≤ 0.25"}, {"variant": "HAAW", "enrichment ratio": "≤ 0.25"}, {"variant": "VKRT", "enrichment ratio": "≤ 0.25"}, {"variant": "IAPH", "enrichment ratio": "≤ 0.25"}, {"variant": "IDFN", "enrichment ratio": "≤ 0.25"}, {"variant": "ENIM", "enrichment ratio": "≤ 0.25"}, {"variant": "EYMS", "enrichment ratio": "≤ 0.25"}, {"variant": "HSGH", "enrichment ratio": "≤ 0.25"}, {"variant": "QNFK", "enrichment ratio": "≤ 0.25"}, {"variant": "WYNE", "enrichment ratio": "≤ 0.25"}, {"variant": "ETMP", "enrichment ratio": "≤ 0.25"}, {"variant": "TAQT", "enrichment ratio": 7.05}, {"variant": "GWGF", "enrichment ratio": "≤ 0.25"}, {"variant": "FVAT", "enrichment ratio": "≤ 0.25"}, {"variant": "GRNA", "enrichment ratio": "≤ 0.25"}]}]}
